Laboratory results: PubChem BioAssay AID488969 (Vanderbilt High Throughput Screening Facility, 2010)
Over roughly 110,000 compounds, “z-score” has its median near -0.1; the highest 2% begin near 2. Some of the results follow. Activity calls are given as the source filed them.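 The calls were made as follows: active = z-score in the third read window above 3 or below -3; inactive = the rest.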

Target: Metabotropic glutamate receptor 8 (Rattus norvegicus) (UniProt P70579)
Test: rat mGluR8 modulators via GIRK flux, primary screen, cell-based, thallium flux, HTS (AID 488969)
Conditions: HEK293 rat mGluR8, GIRK (G protein-gated inwardly rectifying potassium channel) thallium flux, FluoZin2; at 10 µM; stronger effect = higher value; submaximal glutamate (EC20) added with thallium

Sequence of UniProt P70579 (P70579 whole entry, looked up): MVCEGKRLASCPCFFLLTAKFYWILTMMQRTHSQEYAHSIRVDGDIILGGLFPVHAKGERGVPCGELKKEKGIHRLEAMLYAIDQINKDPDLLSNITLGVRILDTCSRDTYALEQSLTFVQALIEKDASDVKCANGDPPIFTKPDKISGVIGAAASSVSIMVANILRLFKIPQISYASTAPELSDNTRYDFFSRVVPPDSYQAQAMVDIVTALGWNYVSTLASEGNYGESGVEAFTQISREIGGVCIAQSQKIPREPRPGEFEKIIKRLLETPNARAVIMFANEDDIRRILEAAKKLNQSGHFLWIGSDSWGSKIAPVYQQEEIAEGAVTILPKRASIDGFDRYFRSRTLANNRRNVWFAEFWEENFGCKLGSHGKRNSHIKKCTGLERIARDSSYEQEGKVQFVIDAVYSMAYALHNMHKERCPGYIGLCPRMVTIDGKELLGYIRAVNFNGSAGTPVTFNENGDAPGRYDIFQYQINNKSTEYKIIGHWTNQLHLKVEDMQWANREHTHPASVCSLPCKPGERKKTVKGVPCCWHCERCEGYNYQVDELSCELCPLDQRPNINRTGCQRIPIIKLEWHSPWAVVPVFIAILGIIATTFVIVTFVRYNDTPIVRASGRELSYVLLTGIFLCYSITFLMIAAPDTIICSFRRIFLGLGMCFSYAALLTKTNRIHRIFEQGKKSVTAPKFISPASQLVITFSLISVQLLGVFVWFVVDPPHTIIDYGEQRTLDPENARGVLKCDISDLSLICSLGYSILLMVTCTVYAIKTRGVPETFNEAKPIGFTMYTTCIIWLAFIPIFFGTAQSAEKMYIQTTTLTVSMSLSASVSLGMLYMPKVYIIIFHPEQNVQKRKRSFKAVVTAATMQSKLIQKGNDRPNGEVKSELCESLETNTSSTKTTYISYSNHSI

Compared with Cc1ccc(Nc2nc(N)nc(CSc3nc(C)cc(C)n3)n2)cc1, Cc1cc(C)nc(SCc2nnc(SCC(=O)N3CCCc4ccccc43)n2C)n1 is higher in z-score: -1.05 for the first, -0.126 for the second.

Going from N#C/C(=N\Nc1cc(Cl)cc(Cl)c1)c1nnc2n1CCCCC2 to Cc1cc(C(=O)Nc2nnc(C3CCCCC3)s2)no1, the z-score rises from -0.116 to 0.35.

First: CC1CCC(C(=O)NC(C(=O)NCc2ccccn2)C(C)C)CC1 (centres undefined)
Second: CCOCCCNC(=O)C1CCN(C(=O)Nc2ccc(Cl)cc2)CC1
The z-score of the first is lower: -0.93 for the first, 0.141 for the second.

Going from CCSc1nnc(NC(=O)Cc2ccc(OC)cc2)s1 to COc1ccc(-n2c(SCC(=O)NCCC(C)C)nc3ccsc3c2=O)cc1, the z-score falls from 0.258 to -0.332.

Compared with O=c1[nH]c2ccccc2cc1-c1noc(-c2cccnc2)n1, O=C(O)c1cc(-c2ccc(O)cc2)nc2ccccc12 is lower in z-score: 0.246 for the first, 0.225 for the second.

First: O=C(NCc1ccco1)c1ccc(Cl)c(S(=O)(=O)N2CCOCC2)c1
Second: O=C(/C=C/c1ccc(S(=O)(=O)N2CCOCC2)cc1)NCc1ccccc1
The z-score of the first is higher: -0.395 for the first, -0.687 for the second.

Compared with O=C1CC(N2CCN(c3ccccc3Cl)CC2)C(=O)N1c1cccc(F)c1 (centres undefined), CN(c1ccccc1)S(=O)(=O)c1cccc(C(=O)N2CCN(c3ccccn3)CC2)c1 is lower in z-score: 0.412 for the first, -0.41 for the second.

Going from CCNC(=O)c1cc(Cl)ccc1OC to CCNC(=O)N1c2ccc(OC)cc2C(C)=CC1(C)C, the z-score rises from 0.00234 to 0.559.

Going from CCC1CCc2c(sc3ncnc(N4CCOCC4)c23)C1 (centres undefined) to Cc1nc(N2CCOCC2)nc(OC(C)C)c1[N+](=O)[O-], the z-score rises from -0.267 to 0.117.

Compared with COc1ccccc1CCNC(=O)CCn1c(=O)oc2ccccc21, O=C(CCOc1ccccc1)OCC(=O)c1cc2ccccc2o1 is lower in z-score: 0.566 for the first, -0.474 for the second.

Going from COc1nc(Nc2ccc(-c3nc4ccccc4o3)cc2)nc(N2CCOCC2)n1 to Cc1ccc2nc3sc(C(=O)Nc4ccc(N5CCOCC5)cc4)c(N)c3cc2c1, the z-score falls from 0.73 to 0.05.

First: Cn1cc(S(=O)(=O)CC(=O)N2CCCc3ccccc32)c2ccccc21
Second: Cc1c(C(=O)C(=O)N2CC=C(c3ccccc3)CC2)c2ccccc2n1C
The z-score of the first is higher: -0.0522 for the first, -0.486 for the second.

First: Cc1c(Cl)cccc1-n1c(SCC(=O)N(C)Cc2ccccc2)nnc1-c1ccncc1
Second: COc1cccc(-c2nnc(SCC3CNC(=O)O3)n2-c2ccc(Cl)cc2)c1 (centres undefined)
The z-score of the first is lower: -0.531 for the first, -0.245 for the second.

Going from O=C(Nc1ccc(Cl)cc1)N1CCC(c2nc(-c3cccs3)no2)CC1 to O=C(Nc1nc2ccccc2s1)c1ccc(OCC2CCCO2)cc1 (centres undefined), the z-score rises from -0.239 to -0.146.

First: CCN1CCN(S(=O)(=O)c2ccc3ccccc3c2)CC1
Second: N#C/C(=C\c1ccccc1)C(=O)Nc1cc(S(=O)(=O)N2CCOCC2)ccc1N1CCCC1
The z-score of the first is higher: 0.0116 for the first, -0.0157 for the second.

Going from CCc1[nH]c(C)c(C(C)=O)c1C to CCOC(=O)c1c(NC(=O)CSc2ncn[nH]2)sc(C)c1C, the z-score falls from 0.445 to -2.21.

Going from CCOC(=O)C1=C(C)n2c(s/c(=C/c3cccc([N+](=O)[O-])c3)c2=O)=NC1c1ccc(O)c(OC)c1 (centres undefined) to COc1ccc(CCn2c(C)c(C(C)=O)c3cc(OC(=O)c4ccco4)ccc32)cc1OC, the z-score falls from -0.106 to -0.48.

Going from CS(=O)(=O)c1ccc2nc(NC(=O)c3cc4ccccc4o3)sc2c1 to CCc1ccc(NC(=O)c2ccc3ncsc3c2)cc1, the z-score falls from -0.192 to -0.251.

Compared with CCCCOc1ccc(C(=O)NCC(=O)OC2CCOC2=O)cc1 (centres undefined), CC(C)NC(=O)NC(=O)COC(=O)CCOc1ccccc1 is higher in z-score: -1.68 for the first, -0.289 for the second.

First: CCCn1nnnc1SCC(=O)NNC(=O)C1CCCCC1
Second: CC1CCCN(C(c2cccs2)c2nnnn2Cc2ccccc2)C1 (centres undefined)
The z-score of the first is higher: 0.152 for the first, 0.0292 for the second.

Going from O=C(NCCc1ccccc1)c1noc2c1CCc1ccccc1-2 to CCOc1ccccc1NC1=C(Cl)C(=O)N(Cc2ccccc2)C1=O, the z-score rises from -1.36 to -0.0694.

Going from CCCc1cc(C(=O)Nc2cc(OC)c(Cl)cc2OC)no1 to COc1cc(OC)c(NC(=O)CCc2nc(-c3ccc(C)cc3)no2)cc1Cl, the z-score falls from 1.06 to -0.421.

Compared with CCN(CC)c1ccc(NC(=O)c2cc(OC)cc(OC)c2)c(C)c1, CCc1cccc(CC)c1NC(=O)COC(=O)CCc1cc(OC)c(OC)c(OC)c1 is higher in z-score: -0.691 for the first, -0.0755 for the second.

First: Clc1ccc2c(c1)CCc1cccnc1C2=C1CCNCC1
Second: Cc1cc(C(=S)N2CCOCC2)c(C)n1-c1ccc(Cl)cc1
The z-score of the first is higher: 2.74 for the first, -0.0207 for the second.

First: Nc1c(C(=O)NCc2ccco2)c2nc3ccccc3nc2n1CCc1ccccc1F
Second: CCc1ccccc1NC(=O)C(CC)Sc1nc2cc3c(cc2c(=O)n1Cc1ccco1)OCO3 (centres undefined)
The z-score of the first is higher: 0.34 for the first, 0.292 for the second.

Going from O=C(NCc1ccc2c(c1)OCO2)C1CCC(CNS(=O)(=O)c2ccc(Cl)cc2)CC1 (centres undefined) to O=S(=O)(c1ccc(NC(=S)Nc2ccc3c(c2)OCO3)cc1)N1CCOCC1, the z-score rises from -0.554 to 0.154.

First: O=C(N/N=C/C=C/c1ccc([N+](=O)[O-])cc1)C1COc2ccccc2O1 (centres undefined)
Second: O=C(Nc1ccc2c(c1)OCCO2)C1CC1c1ccccc1 (centres undefined)
The z-score of the first is lower: -0.721 for the first, -0.121 for the second.

Going from CCCSc1ncc(Cl)c(C(=O)Nc2ccc(S(=O)(=O)N3CC(C)OC(C)C3)cc2)n1 (centres undefined) to CSCC[C@H](NC(=O)c1cc([N+](=O)[O-])ccc1Cl)c1nc2ccccc2[nH]1, the z-score rises from -0.85 to -0.318.

Compared with O=S(=O)(NCC(c1cccnc1)N1CCN(Cc2ccccc2)CC1)c1ccccc1 (centres undefined), O=C(c1ccco1)N1CCN(C(=O)c2ccccc2Oc2ccccc2)CC1 is lower in z-score: 0.146 for the first, -0.142 for the second.

First: CCOC(=O)c1cc(-c2ccccc2)sc1NC(=O)CN1C(=O)NC(CC)(c2ccc(F)cc2)C1=O (centres undefined)
Second: Cc1cccc(OCC(=O)Nc2ccccc2-c2ccccc2)c1
The z-score of the first is higher: 0.433 for the first, -0.165 for the second.

Going from COC(=O)c1ccc(N/C(C)=C/C(=O)c2ccc(C)o2)cc1 to CC(OC(=O)c1ccc(S(=O)(=O)NCc2ccco2)cc1)C(=O)Nc1ccc(Cl)cn1 (centres undefined), the z-score falls from 0.165 to 0.0569.

Compared with Cc1cc(NC(=O)C2CCN(S(=O)(=O)c3cccs3)CC2)no1, COc1cc(S(=O)(=O)NC2CCCC2)ccc1Cl is lower in z-score: 0.21 for the first, 0.143 for the second.

Compared with CC1CCN(c2ccc(C(=O)O)cc2)CC1, C/C(=N\NC(=O)C(c1ccncc1)N1CCOCC1)c1ccc(Br)cc1 (centres undefined) is higher in z-score: -0.483 for the first, -0.164 for the second.

Going from COC(=O)n1c(=S)oc2cc(Cl)ccc21 to C=CCNC(=O)CN(c1ccc(OC)cc1OC)S(C)(=O)=O, the z-score falls from 2.15 to 0.109.

Compared with CN(C)c1ccc(NC(=O)c2cc3c(=O)n4ccccc4nc3n2C)cc1, COc1ccc(N=C2NC(=O)S/C2=C\c2ccc(N(C)C)cc2)cc1 is lower in z-score: 0.349 for the first, -0.538 for the second.

First: O=C(CCCN1C(=O)/C(=C/c2ccccc2Cl)SC1=S)Nc1ccccn1
Second: COCCN1C(=O)C(O)=C(C(=O)c2cccs2)C1c1ccccc1 (centres undefined)
The z-score of the first is higher: -0.484 for the first, -0.725 for the second.

First: CCOC(=O)CSC1=Nc2ccccc2C2=NC(CC(=O)NCc3cccs3)C(=O)N12 (centres undefined)
Second: CC1CC(C)(C)N(C(=O)CN2C(=O)c3ccccc3C2=O)c2ccccc21 (centres undefined)
The z-score of the first is higher: 0.253 for the first, -0.0713 for the second.

First: CC(NC(=O)c1ccccc1)C(=O)OCC(=O)N1c2ccccc2Sc2ccccc21 (centres undefined)
Second: O=C(CSc1cccc2cccnc12)OCC(=O)c1ccccc1
The z-score of the first is lower: -0.279 for the first, 0.45 for the second.

Going from O=C(c1ccccc1)N1CCCCC(S(=O)(=O)c2ccccc2)C1=O (centres undefined) to O=c1c2c(ncn2C2CCCC2)n(Cc2ccccc2)c(=O)n1CCOc1ccccc1, the z-score falls from 0.000431 to -0.52.

First: CCCCOCCCNC(=O)c1cccs1
Second: COC(=O)CNC(=O)c1cccs1
The z-score of the first is higher: -0.253 for the first, -0.513 for the second.

Going from CCOc1cc(CNCCCN2CCOCC2)cc(Br)c1OCC(=O)Nc1cccc(C(F)(F)F)c1 to CCOc1cc2nc(-c3ccc(OC)c(OC)c3)nc(NCCCN3CCOCC3)c2cc1OC, the z-score falls from 0.933 to -0.681.

Compared with CCn1c(CCNC(=O)c2cccs2)n[nH]c1=S, Cc1cc(=O)[nH]c(SCC(=O)NCCOc2ccccc2)n1 is higher in z-score: -0.239 for the first, 0.318 for the second.

First: COc1cc2c(cc1OC)/C(=C/C#N)NC(C)(C)C2
Second: COc1cc2c(cc1OC)C(C)N(C(=O)Cn1ncc3c1-c1cc(C)ccc1OC3)CC2 (centres undefined)
The z-score of the first is higher: -0.0215 for the first, -0.0587 for the second.

First: COc1ccc(N2C(=O)C3C4C=CC(C5CC45)C3C2=O)c([N+](=O)[O-])c1 (centres undefined)
Second: CC(C)c1nccn1S(=O)(=O)c1cccc([N+](=O)[O-])c1
The z-score of the first is higher: -0.379 for the first, -0.678 for the second.

Going from CCCNS(=O)(=O)c1ccc(CCC(=O)NCc2cccnc2)cc1 to O=C(CNC(=O)Cc1ccccc1)NCC(=O)OCC(=O)c1cccc2ccccc12, the z-score falls from 0.0352 to -0.402.

Compared with Cc1nn(Cc2ccccc2Cl)c2sc(C(=O)NC(C)(C)C)cc12, CC(=Nc1ccccc1C)C1=C(O)CSC1=O is higher in z-score: -0.712 for the first, 0.486 for the second.

First: Cc1cc2c(cc1C)NC1(C(=O)Nc3ccccc31)C1=C(CC(C)(C)CC1=O)N2 (centres undefined)
Second: COC(=O)C1=C(N)Oc2cc(C)n(CC3CCCO3)c(=O)c2C1c1ccccc1 (centres undefined)
The z-score of the first is higher: 0.0524 for the first, -0.947 for the second.

First: O=C1c2ccccc2C(=O)N1Cc1ccco1
Second: CCOc1ccc(-c2cc(C(=O)O)c3ccccc3n2)cc1
The z-score of the first is higher: -0.072 for the first, -0.933 for the second.

First: Cc1cc(C)cc(Oc2ccccc2/C=C\C(=O)O)c1
Second: Cc1cccn2c(=O)c(C=Nc3ccccc3)c(NCCO)nc12
The z-score of the first is higher: -0.34 for the first, -0.539 for the second.

Going from NC(=O)c1c(NC(NC(=O)c2ccco2)(C(F)(F)F)C(F)(F)F)sc2c1CCCC2 to COC(=O)C1=C(C)NC(=O)C1(NC(=O)c1cccnc1)C(F)(F)F (centres undefined), the z-score rises from -0.0885 to 0.884.

Going from CCOC(=O)CCC(NC(=O)CCCC(=O)NC(CCC(=O)OCC)C(=O)OCC)C(=O)OCC (centres undefined) to Cc1cc(C(=O)NCc2cc(C(=O)O)oc2C)c(C)o1, the z-score falls from 0.886 to -0.0206.

First: CCOC(=O)C1C2C=CC3(CN(Cc4cccs4)C(=O)C13)O2 (centres undefined)
Second: Cc1ccccc1N=Nc1c(C)[nH]n(C(N)=S)c1=O
The z-score of the first is lower: 0.19 for the first, 2.97 for the second.

COc1ccc(/C=C(\NC(=O)c2ccc(OC)c(OC)c2)C(=O)NCCc2c[nH]c3ccccc23)cc1 was tested, and the z-score was -0.337.

For CC(C)CNC(=S)NC(=O)c1ccc([N+](=O)[O-])cc1, the z-score was active: 6.28.
With CCCCn1c(SC(C)C(N)=O)nc2cc(C(=O)OC)ccc2c1=O (centres undefined) the z-score was active: 3.
For CCOc1ccccc1N1CCN(S(=O)(=O)c2cccs2)CC1, the z-score was active: -3.76.
O=C(Nc1ccccc1-c1nnn(CC(=O)N2CCc3ccccc3C2)n1)C1CCC1 was tested, and the z-score was active: -3.74.
